# Results published in the supplement of paper PMC8728848.
# This is one part of the list.
# Tests used:
# Assay in all cases: glycan array binding signal (z-score within array); higher = stronger binding
# Settings in all cases: glycan notation: IUPAC condensed, linker removed
# [1] = biological target: GlcNAc(b1-6)Gal(b1-4)GlcNAc
# Method in brief: (§1)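 The Consortium for Functional Glycomics database supplied 3228 glycan arrays, of which those lacking an available protein sequence were dropped. The binding signal, a within-array Z-score, was averaged across arrays of the same protein sequence and across linkers. Negative scores can be read as non-binding.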
# [2] = biological target: GlcNAc(b1-6)GalNAc
# Method in brief: as §1
# [3] = biological target: GlcNAc3Prop(b1-4)GlcNAc
# Method in brief: as §1
# [4] = biological target: GlcNAc6S(b1-3)Gal(b1-4)GlcNAc
# Method in brief: as §1
# [5] = biological target: Kdn(a2-3)Gal(b1-3)GalNAc
# Method in brief: as §1
# [6] = biological target: Kdn(a2-3)Gal(b1-3)GlcNAc
# Method in brief: as §1
# [7] = biological target: Kdn(a2-3)Gal(b1-4)Glc
# Method in brief: as §1
# [8] = biological target: Kdn(a2-3)Gal(b1-4)GlcNAc
# Method in brief: as §1
# [9] = biological target: Kdn(a2-3)Gal(b1-4)[Fuc(a1-3)]GlcNAc
# Method in brief: as §1
# [10] = biological target: Kdn(a2-6)Gal(b1-4)GlcNAc
# Method in brief: as §1
# [11] = biological target: Man(a1-2)Man(a1-2)Man(a1-3)Man
# Method in brief: as §1
# [12] = biological target: Man(a1-2)Man(a1-2)Man(a1-6)[Man(a1-3)]Man
# Method in brief: as §1
# [13] = biological target: Man(a1-2)Man(a1-3)Man
# Method in brief: as §1
# [14] = biological target: Man(a1-2)Man(a1-3)[Man(a1-2)Man(a1-6)]Man
# Method in brief: as §1
# [15] = biological target: Man(a1-2)Man(a1-3)[Man(a1-2)Man(a1-6)]Man(a1-6)[Man(a1-2)Man(a1-2)Man(a1-3)]Man
# Method in brief: as §1
# [16] = biological target: Man(a1-2)Man(a1-3)[Man(a1-2)Man(a1-6)]Man(a1-6)[Man(a1-2)Man(a1-2)Man(a1-3)]Man(b1-4)GlcNAc(b1-4)GlcNAc
# Method in brief: as §1
# [17] = biological target: Man(a1-2)Man(a1-3)[Man(a1-6)]Man(a1-6)[Man(a1-2)Man(a1-3)]Man(b1-4)GlcNAc(b1-4)GlcNAc
# Method in brief: as §1
# [18] = biological target: Man(a1-2)Man(a1-6)[Man(a1-3)]Man(a1-6)[Man(a1-2)Man(a1-2)Man(a1-3)]Man
# Method in brief: as §1
# [19] = biological target: Man(a1-2)Man(a1-6)[Man(a1-3)]Man(a1-6)[Man(a1-2)Man(a1-2)Man(a1-3)]Man(b1-4)GlcNAc(b1-4)GlcNAc
# Method in brief: as §1
# [20] = biological target: Man(a1-3)[Man(a1-6)]Man
# Method in brief: as §1
# [21] = biological target: Man(a1-3)[Man(a1-6)]Man(a1-6)[Man(a1-2)Man(a1-3)]Man(b1-4)GlcNAc(b1-4)GlcNAc
# Method in brief: as §1
# [22] = biological target: Man(a1-3)[Man(a1-6)]Man(a1-6)[Man(a1-3)]Man
# Method in brief: as §1
# [23] = biological target: Man(a1-3)[Man(a1-6)]Man(a1-6)[Man(a1-3)]Man(b1-4)GlcNAc(b1-4)GlcNAc
# Method in brief: as §1
# [24] = biological target: Man(a1-3)[Man(a1-6)]Man(b1-4)GlcNAc(b1-4)GlcNAc
# Method in brief: as §1
# [25] = biological target: Man(a1-3)[Man(a1-6)]Man(b1-4)GlcNAc(b1-4)[Fuc(a1-6)]GlcNAc
# Method in brief: as §1
# [26] = biological target: Man(a1-6)Man
# Method in brief: as §1
# [27] = biological target: Man(b1-4)GlcNAc
# Method in brief: as §1
# [28] = biological target: Neu5Ac(a2-3)Gal
# Method in brief: as §1
# [29] = biological target: Neu5Ac(a2-3)Gal(b1-3)GalNAc
# Method in brief: as §1
# [30] = biological target: Neu5Ac(a2-3)Gal(b1-3)GalNAc(b1-3)Gal(a1-4)Gal(b1-4)Glc
# Method in brief: as §1
# [31] = biological target: Neu5Ac(a2-3)Gal(b1-3)GalNAc(b1-4)[Neu5Ac(a2-3)]Gal(b1-4)Glc
# Method in brief: as §1
# [32] = biological target: Neu5Ac(a2-3)Gal(b1-3)GalNAc(b1-4)[Neu5Ac(a2-8)Neu5Ac(a2-3)]Gal(b1-4)Glc
# Method in brief: as §1
# [33] = biological target: Neu5Ac(a2-3)Gal(b1-3)GalNAc6S
# Method in brief: as §1
# [34] = biological target: Neu5Ac(a2-3)Gal(b1-3)GlcNAc
# Method in brief: as §1
# [35] = biological target: Neu5Ac(a2-3)Gal(b1-3)GlcNAc(b1-2)Man(a1-3)[GlcNAc(b1-4)][Neu5Ac(a2-3)Gal(b1-3)GlcNAc(b1-2)Man(a1-6)]Man(b1-4)GlcNAc(b1-4)GlcNAc
# Method in brief: as §1
# [36] = biological target: Neu5Ac(a2-3)Gal(b1-3)GlcNAc(b1-3)Gal(b1-3)GlcNAc
# Method in brief: as §1
# [37] = biological target: Neu5Ac(a2-3)Gal(b1-3)GlcNAc(b1-3)Gal(b1-4)GlcNAc
# Method in brief: as §1
binder,measurement,setting,value
"OrfX (Escherichia coli), Q9X4B6_ECOLX (protein) MIKIARIAVTLGLLSSLGAQAYAAGLVVNDNDLRNDLAWLSDRGVIHLSLSTWPLSQEEIARALKKAKPSYSSEQVVLARINQRLSALKADFRVTGYTSTDQPGTPQGFGQTQPADNSLGLAFNNSGEWWDVHLQGNVEGGERISNGSRFNANGAYGAVKFWNQWLSFGQVPQWWGPGYEGSLIRGDAMRPMTGFLMQRAEQAAPETWWLRWVGPWQYQISASQMNQYTAVPHAKIIGGRFTFTPFQSLELGASRIMQWGGEGRPQSFSSFWDGFTGHDNTGTDNEPGNQLAGFDFKFKLEPTLGWPVSFYGQMVGEDESGYLPSANMFLGGVEGHHGWGKDTVNWYVEAHDTRTNMSRTNYSYTHHIYKDGYYQQGYPLGDAMGGDGQLIAGKVELITEDNQRWSTRLVYAKVNPENQSINKAFPHADTLKGLQLGWSGDVYQSVRLNTSLWYTNANNSDSDDVGASAGIEIPFSL",glycan array binding signal (z-score),[1],-0.167
same,glycan array binding signal (z-score),[2],-0.055
same,glycan array binding signal (z-score),[3],-0.301
same,glycan array binding signal (z-score),[4],-0.199
same,glycan array binding signal (z-score),[5],-0.206
same,glycan array binding signal (z-score),[6],-0.349
same,glycan array binding signal (z-score),[7],-0.109
same,glycan array binding signal (z-score),[8],-0.244
same,glycan array binding signal (z-score),[9],0.343
same,glycan array binding signal (z-score),[10],-0.244
same,glycan array binding signal (z-score),[11],-0.428
same,glycan array binding signal (z-score),[12],-0.231
same,glycan array binding signal (z-score),[13],-0.197
same,glycan array binding signal (z-score),[14],-0.169
same,glycan array binding signal (z-score),[15],-0.259
same,glycan array binding signal (z-score),[16],-0.124
same,glycan array binding signal (z-score),[17],0.416
same,glycan array binding signal (z-score),[18],-0.371
same,glycan array binding signal (z-score),[19],-0.132
same,glycan array binding signal (z-score),[20],-0.197
same,glycan array binding signal (z-score),[21],-0.361
same,glycan array binding signal (z-score),[22],-0.155
same,glycan array binding signal (z-score),[23],-0.385
same,glycan array binding signal (z-score),[24],-0.342
same,glycan array binding signal (z-score),[25],0.101
same,glycan array binding signal (z-score),[26],-0.129
same,glycan array binding signal (z-score),[27],-0.181
same,glycan array binding signal (z-score),[28],-0.121
same,glycan array binding signal (z-score),[29],-0.32
same,glycan array binding signal (z-score),[30],-0.332
same,glycan array binding signal (z-score),[31],-0.165
same,glycan array binding signal (z-score),[32],-0.243
same,glycan array binding signal (z-score),[33],-0.193
same,glycan array binding signal (z-score),[34],-0.22
same,glycan array binding signal (z-score),[35],-0.091
same,glycan array binding signal (z-score),[36],-0.096
same,glycan array binding signal (z-score),[37],-0.169
